Experimental data as given in PubChem BioAssay (NCATS).
Inconclusive results, whose numbers are uncertain, are shown with a selection of clear calls. For some of these results: No potency is given beside an inconclusive call; the fits are too rough. The source made the active and inactive calls. Calls come from the whole dose curve; as a rule, active = well fitted curve in the direction sought with a large enough effect; inconclusive = small, poorly fitted or top-dose-only effect, or another doubt; inactive = no such curve, though single readings can be large; an effect the other way counts as inactive or inconclusive.

What was measured:
[1] = system: Zika virus NS2B-NS3 protease; assay: Primary screen GU AMC qHTS for Zika virus inhibitors (AID 1347154); note: nearly all actives have a fitted effect of over 70% in size
How it was run: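 Unlinked Zika NS2B hydrophilic domain–NS3 protease complex at 25 nM in 10 mM Tris-HCl pH 8.0, 0.01% Tween 20, with an AMC peptide substrate. Fluorescence change (340/450 nm) over 15 min at room temperature, normalized to controls, fitted to 4-parameter Hill.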

[2] = HPAF-II Cancer Cell Toxicity qHTS against the NCATS CANVASS Library (AID 1347346); note: potency is the fitted concentration of half-maximal effect; nearly all actives have a fitted effect of over 55% in size
How it was run: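 Cytotoxicity in HPAF-II pancreatic cancer cells: 72 h treatment across 11 concentrations, ATP-based CellTiter-Glo luminescence endpoint.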

[3] = UWB1.289 Cancer Cell Toxicity qHTS against the NCATS CANVASS Library (AID 1347347); note: potency is the fitted concentration of half-maximal effect; nearly all actives have a fitted effect of over 60% in size
How it was run: (§1)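 Bortezomib titration and single-dose wells served as plate controls. Test compounds, 11 points, acted on 1000 cells/well for 72 h at 37 degrees C; CellTiter-Glo luminescence quantified remaining viable cells.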

[4] = Panc-1005 Cancer Cell Toxicity qHTS against the NCATS CANVASS Library (AID 1347349); note: potency is the fitted concentration of half-maximal effect; nearly all actives have a fitted effect of over 60% in size
How it was run: as §1

[5] = COV-362 Cancer Cell Toxicity qHTS against the NCATS CANVASS Library (AID 1347352); note: potency is the fitted concentration of half-maximal effect
How it was run: (§2)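 qHTS cytotoxicity: compounds tested in 11 concentrations on 1000 seeded cells per well over 72 h; bortezomib served as control; signal from CellTiter-Glo luminescence.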

[6] = A2780 Cisplatin Sensitive Ovarian Cancer Cell Toxicity qHTS against the NCATS CANVASS Library (AID 1347353); note: potency is the fitted concentration of half-maximal effect; nearly all actives have a fitted effect of over 60% in size
How it was run: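 Seventy-two-hour exposure of cisplatin-sensitive A2780 ovarian cells to an 11-concentration qHTS series; cytotoxicity is inferred from loss of ATPLite luminescence. Bortezomib titration served as positive control.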

[7] = UWB1.289-WTBRCA1 Cancer Cell Toxicity qHTS against the NCATS CANVASS Library (AID 1347354); note: potency is the fitted concentration of half-maximal effect
How it was run: as §2

[8] = KB-8-5-11 Cancer Cell Toxicity qHTS against the NCATS CANVASS Library (AID 1347364); note: potency is the fitted concentration of half-maximal effect; nearly all actives have a fitted effect of over 75% in size
How it was run: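 Natural products were titrated in 11 points onto KB-8-5-11 cells, 500 per well, and cytotoxicity was scored from CellTiter-Glo luminescence after 72 hr culture.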

[9] = KB-3-1 Cancer Cell Toxicity qHTS against the NCATS CANVASS Library (AID 1347366); note: potency is the fitted concentration of half-maximal effect; nearly all actives have a fitted effect of over 75% in size
How it was run: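 Cytotoxicity toward KB-3-1 cells (500/well, DMEM + 10% FBS) was scored by CellTiter-Glo luminescence following 72 hr exposure at 37C, with bortezomib titrated as control.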

[10] = J3T Cancer Cell Toxicity qHTS against the NCATS CANVASS Library (AID 1347371); note: potency is the fitted concentration of half-maximal effect
How it was run: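 Viability of the J3T glioma line from dog is scored by ATP luminescence after a 72 hr incubation with natural products.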

[11] = qHTS for Activators of p53 Stress Response Pathway screened against the NCATS CANVASS Library (AID 1347388); note: potency is the fitted concentration of half-maximal effect
How it was run: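 p53RE-bla HCT-116 cells (4000/well) were pre-incubated for 5 h, then treated with compound (11 points) for 16 h at 37C. After 2 h with CCF4, the 460/530 nm ratio gave reporter activation; CellTiter-Glo measured viability.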

[12] = Secretion counterscreen for inhibitors of the SERCaMP assay screened against the NCATS CANVASS Library (AID 1347390);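 note: light from luciferase secreted into medium read as a measure of general secretion; potency is the fitted concentration of half-maximal effect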
How it was run: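 Natural products are titrated in an 11-point series up to 77 uM onto SH-SY5Y-GLuc STOP cells for 20 h. Secreted reporter activity is measured as coelenterazine-driven luminescence, with Brefeldin A on each plate.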

[13] = qHTS for inhibitors of ER calcium dysfunction: SERCaMP assay screened against the NCATS CANVASS Library (AID 1347393); conditions: SH-SY5Y GLuc-SERCaMP secretion, thapsigargin, luminescence; activity change, negative = inhibition: at 76.6 µM (top of the series); note: potency is the fitted concentration of half-maximal effect; nearly all actives have a fitted effect of over 40% in size
How it was run: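 SH-SY5Y GLuc-SERCaMP, 1000 cells/well, 4 h attach; cpd 16 h, 37C/5% CO2; thapsigargin (added as 6x 600 nM) 4 h; coelenterazine; luminescence. Reduced reporter release = ER Ca stabilization.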

[14] = Vero-766 cells viability qHTS against the NCATS CANVASS Library: Counterscreen for Zika virus inhibition assay (AID 1347394); note: potency is the fitted concentration of half-maximal effect; nearly all actives have a fitted effect of over 60% in size
How it was run: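 Counterscreen for toxicity: Vero 766 cells exposed 72 h to an 11-point compound series, viability by CellTiter-Glo.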

[15] = qHTS for inhibitors of Wild type Zika virus screened against the NCATS CANVASS Library (AID 1347396); note: potency is the fitted concentration of half-maximal effect
How it was run: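 Vero 766 (African green monkey) cells, 1000 per well, attached overnight, then compounds were added in an 11-point series before wild-type Zika virus infection. After 72 h at 37C, cell viability was read as CellTiter Glo luminescence.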

Furin (Homo sapiens) = Furin (Homo sapiens) (UniProt P09958); assay: Furin counterscreen qHTS for Zika virus inhibitors (AID 1347149);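 note: purified recombinant full-length human furin enzyme at 5 nM; fluorescence gain from furin cutting a BOC-RVRR-AMC peptide substrate over 15 min; top concentration of the series differs between compounds; nearly all actives have a fitted effect of over 70% in size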
Chain of UniProt P09958 (P09958 whole entry, looked up): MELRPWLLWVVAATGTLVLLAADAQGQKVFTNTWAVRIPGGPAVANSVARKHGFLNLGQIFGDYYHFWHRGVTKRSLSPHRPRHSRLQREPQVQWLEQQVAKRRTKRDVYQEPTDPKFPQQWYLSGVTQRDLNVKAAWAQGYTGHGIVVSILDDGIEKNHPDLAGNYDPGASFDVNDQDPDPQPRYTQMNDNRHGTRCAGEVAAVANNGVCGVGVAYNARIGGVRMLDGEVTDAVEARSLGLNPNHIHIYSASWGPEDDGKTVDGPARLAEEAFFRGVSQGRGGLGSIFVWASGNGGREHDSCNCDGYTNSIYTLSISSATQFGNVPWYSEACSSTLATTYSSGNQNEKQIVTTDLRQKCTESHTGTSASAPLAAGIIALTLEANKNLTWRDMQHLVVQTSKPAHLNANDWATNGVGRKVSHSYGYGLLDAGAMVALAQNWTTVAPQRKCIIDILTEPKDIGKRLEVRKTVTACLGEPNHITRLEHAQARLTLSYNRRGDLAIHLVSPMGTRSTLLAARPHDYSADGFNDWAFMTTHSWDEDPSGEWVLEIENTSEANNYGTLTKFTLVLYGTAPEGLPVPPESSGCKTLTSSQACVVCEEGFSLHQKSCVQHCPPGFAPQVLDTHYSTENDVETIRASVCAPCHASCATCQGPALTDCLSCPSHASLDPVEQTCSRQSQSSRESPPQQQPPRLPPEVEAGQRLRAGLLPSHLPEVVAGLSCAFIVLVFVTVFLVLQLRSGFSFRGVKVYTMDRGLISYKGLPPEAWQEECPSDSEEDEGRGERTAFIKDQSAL
How it was run: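 Fluorogenic cleavage of BOC-RVRR-AMC (2 microM final, Km ~15 µM) was monitored (ex 340, em 450 nm) at 37C after 15 min RT preincubation of 5 nM furin with compounds in HEPES pH 7.0 buffer with CaCl2 and Triton X-100. Percent inhibition was fitted to a 4-parameter Hill curve.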

[16] = HepG2 cells viability qHTS for Zika virus inhibitors (AID 1347168); note: potency is the fitted concentration of half-maximal effect
How it was run: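 Cells seeded at 2.5 x 10^5 cells/mL in DMEM with 4% FBS and attached overnight at 37 degrees C, then exposed to compound for 24 to 48 hours. Viability read as ATP content by CellTiter Glo luminescence.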

[17] = Tertiary RLuc qRT-PCR qHTS assay for Zika virus inhibitors (AID 1347169); conditions: infected Vero cells, reporter luminescence, 48-72 h; activity change, negative = inhibition: at 45.9 µM (top of the series); note: potency is the fitted concentration of half-maximal effect; nearly all actives have a fitted effect of over 55% in size
How it was run: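 Inhibition of ZIKV-RLuc replication in Vero cells, read as Renilla luminescence 1-1.5 hrs after live-cell substrate addition, following 48-72 hrs infection at MOI 1-2 in presence of compound.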

[18] = target: N-terminal Xaa-Pro-Lys N-methyltransferase 1 (Homo sapiens) (UniProt Q9BV86); assay: qHTS Assay for Inhibitors of N-terminal methyltransferase 1 (NTMT1): LOPAC validation of the NTMT1 SAHH-coupled ThioGlo3 Assay (AID 1347143);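 note: SAH from peptide methylation measured as thiol fluorescence via SAHH coupling and ThioGlo3; potency is the fitted concentration of half-maximal effect; nearly all actives have a fitted effect of over 70% in size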
Chain of UniProt Q9BV86 (Q9BV86 whole entry, looked up): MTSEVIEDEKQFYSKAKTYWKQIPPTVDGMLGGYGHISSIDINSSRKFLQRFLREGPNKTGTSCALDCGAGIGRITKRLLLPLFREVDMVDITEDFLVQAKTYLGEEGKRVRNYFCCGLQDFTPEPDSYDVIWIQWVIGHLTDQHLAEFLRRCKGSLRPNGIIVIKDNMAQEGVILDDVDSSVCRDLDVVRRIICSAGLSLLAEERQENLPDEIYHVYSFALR
How it was run: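 Recombinant human NTMT1 (125nM) was pre-incubated 1 min at room temperature with compounds over a concentration range, then a mix of 100uM SAM, 10uM SAHH and 15uM ThioGlo3 (concentrations in added reagent) was added. ThioGlo3 fluorescence (ex 340/em 450nm) after 30 min was normalized to the initial reading.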
Tags give direction and shape of the fitted curve.

C=C1[C@@H](C)[C@H]2[C@H](Cc3ccccc3)NC(=O)[C@]23OC(=O)/C=C/[C@H](O)CCC[C@@H](C)C/C=C/[C@H]3[C@@H]1O
Potency [1]: inactive
Potency [2]: inconclusive [cytotoxic, full curve, poor fit]
Potency [3]: active: 5.94 µM
Potency [4]: inconclusive [cytotoxic, full curve]
Potency [5]: inconclusive [cytotoxic, full curve]
Potency [6]: inconclusive [cytotoxic, partial curve, poor fit]
Potency [7]: active: 13.3 µM
Potency [8]: active: 9.35 µM
Potency [9]: active: 4.69 µM
Potency [10]: inconclusive [cytotoxic, single point]
Potency [11]: inconclusive [activator, full curve]
Potency [12]: inconclusive [inhibitor, full curve]
Potency [13]: inconclusive [inhibitor, single point]
Potency [14]: active: 13.2 µM
Potency [15]: inconclusive [inhibitor, partial curve]

CC1OC(O[C@H]2C[C@@H](O)[C@]3(CO)[C@H]4[C@H](O)C[C@]5(C)[C@@H](C6=CC(=O)OC6)CC[C@]5(O)[C@@H]4CC[C@]3(O)C2)C(O)C(O)C1O (some centres undefined)
Potency (Furin (Homo sapiens)): inactive
Potency [16]: inconclusive [cytotoxic, full curve, poor fit]
Potency [17]: active: 0.147 µM

CC(C)[C@H]1CN[C@H](C(=O)O)[C@H]1CC(=O)O
Potency [18]: inconclusive [inhibitor, single point]
